From the supplement of paper PMC4967469
A lower IC50 marks a more sensitive line; a fit beyond the top or the lowest dose is shown as a bound at that dose. The AUC spans the tested range (256-fold, ending at the top dose) of the same fit: 1 means no effect, lower means more sensitive. The top dose, if marked as inferred, is not printed in the source and was worked back from the curve model.

The cell lines below were run with CCn1cc(-c2ccnc3[nH]c(-c4cccc(CN(C)C)c4)cc23)c(-c2ccc(NC(=O)N(C)C)cc2)n1 [GSK1070916] (assay: Viability of human cancer cell lines after 72 h of drug (GDSC screen)). Conditions: top dose inferred.
Experimental: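 Human cancer cell lines in 384-well plates, medium with 10% serum, drug for 72 h over a 256-fold dose range (nine 2-fold or five 4-fold steps up to the top dose). Adherent lines were fixed and stained with the nucleic acid dye Syto60, suspension lines read with resazurin; signal relative to control wells, capped at 0 and 100%. One two-parameter sigmoid per drug and line, fitted in a mixed model over all curves with the slope shared within a line.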

| Cell Line | AUC | IC50 [µM] |
| --- | --- | --- |
| LB373-MEL-D (melanoma, adherent, top dose 2.56 µM) | 0.99 | > 2.56 |
| MIA-PaCa-2 (pancreas, adherent, top dose 2.56 µM) | 0.97 | > 2.56 |
| CAL-54 (kidney, adherent, top dose 2.56 µM) | 0.961 | > 2.56 |
| CADO-ES1 (Ewing sarcoma, suspension, top dose 2.56 µM) | 0.727 | 0.715 |
| KASUMI-1 (acute myeloid leukaemia, suspension, top dose 2.56 µM) | 0.216 | 0.0234 |
| NCI-H441 (lung adenocarcinoma, adherent, top dose 2.56 µM) | 0.981 | > 2.56 |
| CHP-134 (neuroblastoma, suspension, top dose 2.56 µM) | 0.272 | 0.0297 |
| MDA-MB-231 (breast, adherent, top dose 2.56 µM) | 0.972 | > 2.56 |
| LP-1 (myeloma, suspension, top dose 2.56 µM) | 0.932 | > 2.56 |
| SU-DHL-6 (B-cell lymphoma, suspension, top dose 2.56 µM) | 0.841 | 1.15 |
| OVTOKO (ovary, adherent, top dose 2.56 µM) | 0.933 | > 2.56 |
| no-11 (glioma, adherent, top dose 2.56 µM) | 0.913 | > 2.56 |
| G-401 (kidney, adherent, top dose 2.56 µM) | 0.771 | 1.08 |
| GR-ST (lymphoblastic leukaemia, suspension, top dose 2.56 µM) | 0.826 | 2.01 |
| D-502MG (glioma, adherent, top dose 2.56 µM) | 0.955 | > 2.56 |
| RERF-LC-KJ (lung adenocarcinoma, adherent, top dose 2.56 µM) | 0.963 | > 2.56 |
| JiyoyeP-2003 (Burkitt lymphoma, suspension, top dose 2.56 µM) | 0.989 | > 2.56 |
| CAMA-1 (breast, adherent, top dose 2.56 µM) | 0.936 | > 2.56 |
| G-402 (soft tissue, adherent, top dose 2.56 µM) | 0.811 | 1.95 |
| SK-MEL-1 (melanoma, suspension, top dose 2.56 µM) | 0.993 | > 2.56 |

| Cell Line | AUC | IC50 [µM] |
| --- | --- | --- |
| A431 (skin, adherent, top dose 2.56 µM) | 0.576 | 0.256 |
| KMRC-20 (kidney, adherent, top dose 2.56 µM) | 0.988 | > 2.56 |
| PCI-4B (head and neck, adherent, top dose 2.56 µM) | 0.908 | > 2.56 |
| HT55 (large intestine, adherent, top dose 2.56 µM) | 0.99 | > 2.56 |
| SK-GT-4 (oesophagus, adherent, top dose 2.56 µM) | 0.953 | > 2.56 |
| LOUCY (T-cell lymphoblastic leukaemia, suspension, top dose 2.56 µM) | 0.018 | < 0.01 |
| NCI-H2081 (small cell lung carcinoma, suspension, top dose 2.56 µM) | 0.278 | 0.0359 |
| SK-HEP-1 (liver, adherent, top dose 2.56 µM) | 0.989 | > 2.56 |
| HSC-3 (head and neck, adherent, top dose 2.56 µM) | 0.99 | > 2.56 |
| PANC-02-03 (pancreas, adherent, top dose 2.56 µM) | 0.958 | > 2.56 |
| BE2-M17 (neuroblastoma, adherent, top dose 2.56 µM) | 0.957 | > 2.56 |
| SNU-C2B (large intestine, adherent, top dose 2.56 µM) | 0.958 | > 2.56 |
| HO-1-u-1 (head and neck, adherent, top dose 2.56 µM) | 0.984 | > 2.56 |
| PCI-38 (head and neck, adherent, top dose 2.56 µM) | 0.971 | > 2.56 |
| TT (thyroid, adherent, top dose 2.56 µM) | 0.983 | > 2.56 |
| LB831-BLC (bladder, adherent, top dose 2.56 µM) | 0.95 | > 2.56 |
| NCI-H1915 (large cell lung carcinoma, adherent, top dose 2.56 µM) | 0.931 | > 2.56 |
| KYSE-450 (oesophagus, adherent, top dose 2.56 µM) | 0.827 | 1.45 |
| LB2518-MEL (melanoma, adherent, top dose 2.56 µM) | 0.975 | > 2.56 |
